Laboratory results reported in US9642869B2, “Boronic acid derivatives and therapeutic uses thereof” (Rempex Pharmaceuticals, Inc., priority 2013, dated 2017).

What follows are compounds tested on SHV-12 KP1010 (assay: Aztreonam potentiation (MPC@4)). Conditions: not given.
Assay type: cell-based

| Structure (SMILES) | AZT MPC4 SHV-12 KP1010 |
| --- | --- |
| CN(C)C(=O)CC(=O)N[C@H]1Cc2cccc(C(=O)O)c2OB1O [Compound 10, (R)-3-(3-(dimethylamino)-3-oxopropanamido)-2-hydroxy-3,4-dihydro-2H-benzo[e][1,2]oxaborinine-8-carboxylic acid] | X (key: X: MIC of less than 1 μg/mL; Y: MIC of 1 μg/mL to 10 μg/mL; Z: MIC of greater than 10 μg/mL) |
| NC(=O)CC(=O)N[C@H]1Cc2cccc(C(=O)O)c2OB1O [Compound 16, (R)-3-(3-amino-3-oxopropanamido)-2-hydroxy-3,4-dihydro-2H-benzo[e][1,2]oxaborinine-8-carboxylic acid] | X (key: X: MIC of less than 1 μg/mL; Y: MIC of 1 μg/mL to 10 μg/mL; Z: MIC of greater than 10 μg/mL) |
| CNC(=O)CC(=O)N[C@H]1Cc2cccc(C(=O)O)c2OB1O [Compound 21, (R)-2-hydroxy-3-(3-(methylamino)-3-oxopropanamido)-3,4-dihydro-2H-benzo[e][1,2]oxaborinine-8-carboxylic acid] | X (key: X: MIC of less than 1 μg/mL; Y: MIC of 1 μg/mL to 10 μg/mL; Z: MIC of greater than 10 μg/mL) |
| [N-]=[N+]=NCC(=O)N[C@H]1Cc2cccc(C(=O)O)c2OB1O [Compound 8, (R)-3-(2-azidoacetamido)-2-hydroxy-3,4-dihydro-2H-benzo[e][1,2]oxaborinine-8-carboxylic acid] | X (key: X: MIC of less than 1 μg/mL; Y: MIC of 1 μg/mL to 10 μg/mL; Z: MIC of greater than 10 μg/mL) |
| O=C(N[C@H]1Cc2cccc(C(=O)O)c2OB1O)c1cccnc1 [Compound 12, (R)-2-hydroxy-3-(nicotinamido)-3,4-dihydro-2H-benzo[e][1,2]oxaborinine-8-carboxylic acid] | X (key: X: MIC of less than 1 μg/mL; Y: MIC of 1 μg/mL to 10 μg/mL; Z: MIC of greater than 10 μg/mL) |
| CN(C)C(=O)C(=O)N[C@H]1Cc2cccc(C(=O)O)c2OB1O [Compound 9, (R)-3-(2-(dimethylamino)-2-oxoacetamido)-2-hydroxy-3,4-dihydro-2H-benzo[e][1,2]oxaborinine-8-carboxylic acid] | X (key: X: MIC of less than 1 μg/mL; Y: MIC of 1 μg/mL to 10 μg/mL; Z: MIC of greater than 10 μg/mL) |
| Nc1nnc(SCC(=O)N[C@H]2Cc3cccc(C(=O)O)c3OB2O)s1 [Compound 5, (R)-3-(2-(5-amino-1,3,4-thiadiazol-2-ylthio)acetamido)-2-hydroxy-3,4-dihydro-2H-benzo[e][1,2]oxaborinine-8-carboxylic acid] | X (key: X: MIC of less than 1 μg/mL; Y: MIC of 1 μg/mL to 10 μg/mL; Z: MIC of greater than 10 μg/mL) |
| O=C(CSC1CNC1)N[C@H]1Cc2cccc(C(=O)O)c2OB1O [Compound 22, (R)-3-(2-(azetidin-3-ylthio)acetamido)-2-hydroxy-3,4-dihydro-2H-benzo[e][1,2]oxaborinine-8-carboxylic acid] | X (key: X: MIC of less than 1 μg/mL; Y: MIC of 1 μg/mL to 10 μg/mL; Z: MIC of greater than 10 μg/mL) |
| O=CN[C@H]1Cc2cccc(C(=O)O)c2OB1O [Compound 4, (R)-3-formamido-2-hydroxy-3,4-dihydro-2H-benzo[e][1,2]oxaborinine-8-carboxylic acid] | X (key: X: MIC of less than 1 μg/mL; Y: MIC of 1 μg/mL to 10 μg/mL; Z: MIC of greater than 10 μg/mL) |
| O=C(COCc1ccccc1)N[C@H]1Cc2cccc(C(=O)O)c2OB1O [CPD B, reference compound] | Y (key: X: MIC of less than 1 μg/mL; Y: MIC of 1 μg/mL to 10 μg/mL; Z: MIC of greater than 10 μg/mL) |
| O=C(N[C@H]1Cc2cccc(C(=O)O)c2OB1O)c1cncnc1 [Compound 18, (R)-2-hydroxy-3-(pyrimidine-5-carboxamido)-3,4-dihydro-2H-benzo[e][1,2]oxaborinine-8-carboxylic acid] | X (key: X: MIC of less than 1 μg/mL; Y: MIC of 1 μg/mL to 10 μg/mL; Z: MIC of greater than 10 μg/mL) |
| O=C(N[C@H]1Cc2cccc(C(=O)O)c2OB1O)c1cncs1 [Compound 15, (R)-2-hydroxy-3-(thiazole-5-carboxamido)-3,4-dihydro-2H-benzo[e][1,2]oxaborinine-8-carboxylic acid] | X (key: X: MIC of less than 1 μg/mL; Y: MIC of 1 μg/mL to 10 μg/mL; Z: MIC of greater than 10 μg/mL) |
| NC(=O)C(=O)N[C@H]1Cc2cccc(C(=O)O)c2OB1O [Compound 17, (R)-3-(2-amino-2-oxoacetamido)-2-hydroxy-3,4-dihydro-2H-benzo[e][1,2]oxaborinine-8-carboxylic acid] | X (key: X: MIC of less than 1 μg/mL; Y: MIC of 1 μg/mL to 10 μg/mL; Z: MIC of greater than 10 μg/mL) |
| Nc1nnc(C(=O)N[C@H]2Cc3cccc(C(=O)O)c3OB2O)o1 [Compound 20, (R)-3-(5-amino-1,3,4-oxadiazole-2-carboxamido)-2-hydroxy-3,4-dihydro-2H-benzo[e][1,2]oxaborinine-8-carboxylic acid] | X (key: X: MIC of less than 1 μg/mL; Y: MIC of 1 μg/mL to 10 μg/mL; Z: MIC of greater than 10 μg/mL) |
| CSCC(=O)N[C@H]1Cc2cccc(C(=O)O)c2OB1O [Compound 13, (R)-2-hydroxy-3-(2-(methylthio)acetamido)-3,4-dihydro-2H-benzo[e][1,2]oxaborinine-8-carboxylic acid] | X (key: X: MIC of less than 1 μg/mL; Y: MIC of 1 μg/mL to 10 μg/mL; Z: MIC of greater than 10 μg/mL) |
| NC(=O)N[C@H]1Cc2cccc(C(=O)O)c2OB1O [Compound 6, (R)-2-hydroxy-3-ureido-3,4-dihydro-2H-benzo[e][1,2]oxaborinine-8-carboxylic acid] | Y (key: X: MIC of less than 1 μg/mL; Y: MIC of 1 μg/mL to 10 μg/mL; Z: MIC of greater than 10 μg/mL) |
| O=C(CSc1nncs1)N[C@H]1Cc2cccc(C(=O)O)c2OB1O [Compound 7, (R)-3-(2-(1,3,4-thiadiazol-2-ylthio)acetamido)-2-hydroxy-3,4-dihydro-2H-benzo[e][1,2]oxaborinine-8-carboxylic acid] | X (key: X: MIC of less than 1 μg/mL; Y: MIC of 1 μg/mL to 10 μg/mL; Z: MIC of greater than 10 μg/mL) |
| O=C(CSC(F)F)N[C@H]1Cc2cccc(C(=O)O)c2OB1O [Compound 3, (R)-3-(2-(difluoromethylthio)acetamido)-2-hydroxy-3,4-dihydro-2H-benzo[e][1,2]oxaborinine-8-carboxylic acid] | X (key: X: MIC of less than 1 μg/mL; Y: MIC of 1 μg/mL to 10 μg/mL; Z: MIC of greater than 10 μg/mL) |
| O=C(Cc1cccs1)N[C@H]1Cc2cccc(C(=O)O)c2OB1O [CPD A, reference compound] | X (key: X: MIC of less than 1 μg/mL; Y: MIC of 1 μg/mL to 10 μg/mL; Z: MIC of greater than 10 μg/mL) |
| Cn1nnnc1SCC(=O)N[C@H]1Cc2cccc(C(=O)O)c2OB1O [Compound 2, (R)-2-hydroxy-3-(2-(1-methyl-1H-tetrazol-5-ylthio)acetamido)-3,4-dihydro-2H-benzo[e][1,2]oxaborinine-8-carboxylic acid] | X (key: X: MIC of less than 1 μg/mL; Y: MIC of 1 μg/mL to 10 μg/mL; Z: MIC of greater than 10 μg/mL) |
| O=C(N[C@H]1Cc2cccc(C(=O)O)c2OB1O)c1cncc(F)c1 [Compound 14, (R)-3-(5-fluoronicotinamido)-2-hydroxy-3,4-dihydro-2H-benzo[e][1,2]oxaborinine-8-carboxylic acid] | X (key: X: MIC of less than 1 μg/mL; Y: MIC of 1 μg/mL to 10 μg/mL; Z: MIC of greater than 10 μg/mL) |
| Nc1nnc(C(=O)N[C@H]2Cc3cccc(C(=O)O)c3OB2O)s1 [Compound 19, (R)-3-(5-amino-1,3,4-thiadiazole-2-carboxamido)-2-hydroxy-3,4-dihydro-2H-benzo[e][1,2]oxaborinine-8-carboxylic acid] | X (key: X: MIC of less than 1 μg/mL; Y: MIC of 1 μg/mL to 10 μg/mL; Z: MIC of greater than 10 μg/mL) |
| CSC(=O)N[C@H]1Cc2cccc(C(=O)O)c2OB1O [Compound 11, (R)-2-hydroxy-3-(methylthiocarbonylamino)-3,4-dihydro-2H-benzo[e][1,2]oxaborinine-8-carboxylic acid] | X (key: X: MIC of less than 1 μg/mL; Y: MIC of 1 μg/mL to 10 μg/mL; Z: MIC of greater than 10 μg/mL) |

Same assay, conditions: minimum BLI concentration inhibiting growth with 4 μg/mL aztreonam

| Structure (SMILES) | AZT MPC4 SHV-12 KP1010 |
| --- | --- |
| O=C(CSC(F)(F)F)N[C@H]1Cc2cccc(C(=O)O)c2OB1O [Compound 1, (R)-2-hydroxy-3-(2-(trifluoromethylthio)acetamido)-3,4-dihydro-2H-benzo[e][1,2]oxaborinine-8-carboxylic acid] | X (MIC of less than 1 μg/mL) |
